Measured values published in the supplement of paper PMC11417369.
The list shows a part of the results.

These sequences were tested on PF3D7_0420300 AP2 domain 1 (GST-tagged) (assay: gcPBM binding intensity (ln(normalized median fluorescence intensity)); higher = stronger DNA binding).
Procedure, shortened: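 DNA-binding domains from P. falciparum, fused to GST and produced in E. coli, were put on an Agilent 4 × 180k double-stranded probe array for 1 h in 1× PBS holding 1% milk, 0.2 mg/ml BSA, 0.5% salmon testes DNA and 0.03% Triton X-100. Probes were primer-extended, 36 bp long and drawn from intergenic genomic regions, with negative controls included. After Alexa488 anti-GST antibody detection and a 488 nm scan, binding intensity was set as the highest Masliner-normalised natural-log median intensity across replicate spots of either probe orientation.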

Sequence	gcPBM binding intensity (ln)
AGTGTGTGTGCGTATAGTACATATACATATATACAC [XGTACX_site6882]	9.78
AAATGAATAAAATTTATTTATAAAAGAAAAATCACA [GTGCAC_negctrl_site225]	9.03
ATAATACAAAATACATGTACAAATATTTTTCATATT [XGTACX_site1721]	9.32
TAGTACACACAAAATACATGCGGGGTTTAATATTTA [TGCATGCA_site576]	9.6
AATTCTTTCATATATTGTACGTATTCCCATAAAATA [XGTACX_site5923]	9.36
AATATCATCAAACGCACACATACATAAATATATTAT [CACACA_site2174]	9.63
GTTCTTTCAAGTTATACACACCAAAAAAAAAAAAAA [CACACA_site7435]	9.12
TGTTATATTTGTGCGTGTACACATTTGAAAAAATAT [XGTACX_site3796]	9.25
TTTCTTTATTTTTTTTTTTTTTTTTTTCCTTTTTTT [TGCATGCA_negctrl_site231]	9.21
AACGGGGCCAAGAAATATAAATAATCAAAACAAAAA [XGTACX_negctrl_site320]	9.17
TGTGCACGCATATACACACACAAATACAATGATAAA [CACACA_site6656]	9.72
ATATATAAAATATATTGTACATTAACATATATATTT [XGTACX_site2055]	9.21
GTAATATTATATAGTTGTACTTTTTTTTTATTATAT [XGTACX_site483]	9.35
AAACTTGACGGACACACACACACATATATAAAAAAA [CACACA_site4577]	10
ATATATAAATAAATAGTGCATTTTAATATTTAACGT	9.33
AGTAAAAGAAAGCACACACACATGTATATATGTATG [CACACA_site3858]	9.92
CAATATAAAAAACACACGCACACAAAAAAAAAAAAA [CACACA_site3521]	9.79
TTTAAATATTTTAACACACTCATATTTAGGTTACAA [CACACA_site5685]	9.21
TTTACATATTTATATACACACTTTTGCGTGTCTGGT [CACACA_site4750]	9.42
TCCATATATATTATGTGTACATATTATATATATAAA [XGTACX_site7525]	9.02
TAATCCATAAGAAGCACACACATATAAATATATTTT [CACACA_site6774]	9.79
TATTTAAAGATATATACACACATTTGATATTATTAT [CACACA_site6509]	9.46

Sequence	gcPBM binding intensity (ln)
CACACGTAAAAGTATAATATAAAAAAGGTATACACT [CACACA_negctrl_site127]	9.42
ACCTACATACATATGTGTACTTATTTGTATTCACTG [XGTACX_site7124]	9.64
ATAATATATGAAAAAACGATTTTTTCATTTTAAATA [XGTACX_negctrl_site146]	9.01
TTTATAAACAAATGAACACACAAACATATTTATATA [CACACA_site7478]	9.69
AAAAAAAAAATTTTCGTGCACATAAGAAAATTTAAA [GTGCAC_site9788]	8.98
ATAGTATATCAAAATTTGTAAATCATTCTCAATAAA [CACACA_negctrl_site430]	8.87
CATACATACAAACACACACACATATAAATACATACA [CACACA_site4625]	10.2
ACATTGTTGGTGTTAGTGCATTGGTAAATATTATAT	9.58
AAAAAAAAAAAAAAAACACACATATCTGTATTTATA [CACACA_site5760]	9.3
AATTATATATAAAAAGTGCAAAACGATAATTCATCA	9.47
AATATATATATATTATGTACACATAGAAATATATTA [XGTACX_site3874]	9.19
TCATATTCCAAAAAAAAAAAAAAAAAAAAAAAAATA [CACACA_negctrl_site1293]	8.99
ATGTATTACTTAAATATATGAAACATATTACTTTTA [CACACA_negctrl_site496]	9.11
TTTTAGCTATTTTAATATAATGAAGCAAAAAATAAA [TGCATGCA_negctrl_site576]	8.88
ATAATAAATTCTACGCGTACAAAACCATGAACATTA [XGTACX_site7505]	9.32
CTTTCAAAATTATTTATAGTATCTCATATTTTAGTA [XGTACX_negctrl_site72]	9.07
TTTATTAATAAAAAGGTGCAATCAGGAAAAATTATC [GTGCAC_site9626]	9.35
ACACATATGTATATATGTACTTATATATATATATAT [XGTACX_site8632]	9.31
ATCCTTTATAAATAAGTGCATATAAAAAATAATATT [GTGCAC_site9759]	9.09
AGTCCTTACACATATATTAAATATGTGTATATATAT [XGTACX_negctrl_site336]	9.53
TTTTGTTTAGTGTATTGTACAATATATCTTTATTTT [XGTACX_site5163]	9.56
AAAAAAAAAAAAAAAAGTACATATATATATATAATT [XGTACX_site4437]	9.22

Sequence	gcPBM binding intensity (ln)
TATTAATACGGACACACACACACACTAGATAAAATA [CACACA_site4295]	10.2
AAACATTTATGAAGGTGTACAAAAATGAATTAAAAA [XGTACX_site7035]	9.32
TATTTAAATACTGACGCATGCATAAGGAGTAATAGT [TGCATGCA_site465]	9.54
TTTTTTTTTTTTTTTTGTACTTATAAAATAACATGT [XGTACX_site134]	8.57
TAATACTTAGAGAAAAGTACGTATGAACTTATGTAA [XGTACX_site5504]	9.12
TATAAAAAAATAATAAAATAATAAAATATATAAATA [TGCATGCA_negctrl_site394]	9.25
TTTTAAAAGGTAAAATGTACATATATAATATATACA [XGTACX_site1222]	9.11
ATTCTATTATCCTTTGCACACAAAATAAATGAAAAA [CACACA_site3030]	9.31
CCTTCCTTGAATTTTACATGCAAAAAATTATAAAAC [TGCATGCA_site663]	8.92
TATATATTATATATTTGTACATATATATAAAAACTT [XGTACX_site449]	9.12
TTATTAAAATATACATTTGAAAGTAATCTTATTTAA [XGTACX_negctrl_site431]	8.77
TTTTTTCAATATTATATCCAAAAATATTTGTAAATA [TGCATGCA_negctrl_site596]	8.87
ATTTTTATTTTTTTTGTGCACATTTTCATTTTCTAT [GTGCAC_site9580]	9.65
TTTATAATAAAAAATACATGCAGTTATATATAATAA [TGCATGCA_site654]	9.16
ATATTGAAAATTTGAAGTACATCTAAATATATTATT [XGTACX_site7817]	9.16
ATCCGTGTCTGAAATACACACATGACAATGTGAATG [CACACA_site6556]	9.37
TATATATAAATAAACACACACAAATATAATAAAAAA [CACACA_site3526]	10.1
ATAATGTGTTTGGTATTCTTGATAGATAGTTTTGTG [CACACA_negctrl_site68]	9.52
TAAAAGGATACATATACACACATATATATATATATA [CACACA_site2791]	9.32
ATATTTTTATATAATGAACACACATATTATATCATT [CACACA_site8446]	9.4
TTCTTCAACAAAAAAATAAAAATAAAATAATAAAAA [GTGCAC_negctrl_site619]	9.08
ATAAATCGATAAAATATATGCTACATGAATAAATAA [XGTACX_negctrl_site604]	9.35

Sequence	gcPBM binding intensity (ln)
TTTAAAAAATTATATTCACACACATACACATATATA [CACACA_site8076]	9.71
AAAATATGTTAATATTGTACTTAAATAAAAAAAATA [XGTACX_site7152]	8.99
ATTCTTAAAATAAAATGTACGAAAAAAAAAAAAAAA [XGTACX_site1657]	8.92
TATATATATATAAACGCATGTAATTTATACACACAT [TGCATGCA_site946]	9.41
ATCTTTCCTTTTGCATGTACATATGGAAATACTTTT [XGTACX_site6995]	9.41
ATAATTAAGTTATGTGTGCACTGTTAAAAATAAATG	9.49
ATACACATAACATATATATATATATATATATATATC [CACACA_negctrl_site278]	9.36
TTTTATGATATTTACACACAAACGTGAGATAGCTCA [CACACA_site2311]	9.28
AATATAATATCTATAATATAAAAAAAACAAAAAAAA [CACACA_negctrl_site875]	9.4
TTTTTTATTTTTTACATATTTAGCTCATATTTATAT [GTGCAC_negctrl_site491]	9.44
AAGGCATGACTATCTGCACACATAAAAATAAGAAAT [CACACA_site8180]	9.52
TAAAAAAAAATATAATGTACGTATAAATATATATTA [XGTACX_site5085]	9.24
TAAACATAATAATATACACACATATATTGATATATA [CACACA_site2144]	9.57
AATTTTTTTTTTTTGTGTCCTCATAATTCTTCATTC [XGTACX_site5042]	9.41
AAAATTAAAACCTACACACACATTTAAAAAAAAAAA [CACACA_site3068]	9.88
ATTTTTTTGGTAATTTGTACATAATATATACATAAT [XGTACX_site3742]	9.32
TTTTTTTTTTTTACATGTACTTATTTTAAATATAAA [XGTACX_site805]	9.14
TATATTTATTTAAAAACATGCATTTTTTTTTTCCGT [TGCATGCA_site44]	8.99
ATATATTTATAGACTTGTACATATATATACGATATA [XGTACX_site8890]	9.15
TATATTATAGGTTGTGTACACATATTATATAGTACT [CACACA_site4583]	9.42
TAAAAGTTTTTATACATACACACCTATAAATTAAGT [CACACA_site2446]	9.39
CTTTATTATAAGATTACACACATGTCTTATAATTTA [CACACA_site5715]	9.45
